Test results taken from the RNAGym collection of RNA variant scans (doi:10.7554/elife.90254).
Read counts are not given, so values of variants with three or more changes are uncertain.

B1: LINE1-full (parent)
chain: UACGUAGGUGGUUUUCCCCUGAUAGUGCUAAGGGGGCCUGGAAGUUUGGACUGGGCAGAGCUCAACACAGCGUGGCAAAGUGGCUGUGGCUAGACUGCCUCUCUGGAUUCCUCGUCACUCAGCAGGGCAUCUCUGAGAGAAAUGCC

Variants of: B1
Assay: self-cleavage, relative activity (ratio to wild type); higher = more cleavage; in vitro, sequencing; the parent is a self-cleaving ribozyme

Variant	self-cleavage
U46A U52A U87C	0.18
U46C U62C A64G	0
U47A A50U A77U A121G	1
U46C G82A U112C A142G U143G	2.6
A43G U96C U112C	0
U46A U47C A64U U134A	0.33
U46C U104C A138U	2.4
U46G U91A A121G	0.54
A43G U73C A138G	0.54
A43U A65U A92G	0.02
U46C U104G C123U	0.79
U46C U73A A107U A124G	2.03
U45C A65G A140G	0
U46A U47G A64U U73C C113U	0.32
U46A A69U A94G A142C	0.03
U45A U46C C84U A129G	0.25
G44A A50U U87C	0.15
U45A A77G U115A A121G	2.82
U45A A69U G126U U130C	0.04
A43G U73C U112C	0
U47A A59G A64G	0.15

Variant	self-cleavage
U47A A64C G93A A136G	0.06
A43U A65G U130C	0.17
U45C A77U A136G	0.99
U46C A94G A124U	0.25
U46G U108C A136G	1.29
U45C U96C A107G	0.21
U46C U102C A140G	2.15
U45C U112C A117G U134A	1.41
U45C G54A A69G A78G U112A A140G	0.02
U47A A65G G72C	0.02
A43U A57U G74U	0.09
U46C G49U U134A	0.72
U45C U96A U100C	0.14
U46C U100A U109C U130C	0.15
U45C G58U A69G G72A G126A	0.04
U45C G54A A69G A107U U112A	0.32
A43G U73C G80A U85C	0.28
U46C A59U A77G U100C U132C	0
A43U U45C A65G A117U A138U	0.74
A43G U73C A141G	2.84
U46G G82U U130C	1.44

Variant	self-cleavage
G44A A117U A138G	1.82
U45C U73A U109C	1.28
U45C A57U A69U	0.11
U46C U47C U112C	1.31
U46A U73A A141G	1.11
U46C A77U U132C	1.17
U45C U47A U143C	1.36
U46C U73A U104C	1.84
G44A U108C U109C U134C	1.84
U45C A57U U62A A64G	0.21
G44A A50U A77G U87C	0.14
A43G U73G U108C A117U	1.21
A43G U100A U112A	1.05
U47A A79G C133U U143A	1.1
U46A U73A U85C C101A A121U	0.11
U46A A77G U85C A94G U130C	0
U45A U87A A141G	0.04
U46G A59G U100C A124G A140G	0
U45C A57G C66U A141G	0.07
A43G U112C U119C	1.62
U47A A69G G106U A129U	0.28

Variant	self-cleavage
U45A U108C A140U	0.54
U46A U102C U109C	1.66
U46C A78G A121U A141G	1.3
U45C A57G U112C	0.51
U46C A65G G106C U134C	0
U45A A59G A67G U130C A138G A140G	0
U45C A107G U134A	1.02
A43U G74A U102C U130C	1.23
A43G U85C A129U	0
U45A U73C C98U	0.25
U45C A65C G86A U132C A136C	0.08
U46A C63U A65G U100C A140G	0.02
U46C A57C A65G	0.37
A43U U96C U112C A124C	0
U45G A59U U119A	0.72
U46C U102C A138G	1.75
U45G U119G U132C A142G	1.41
U46C A57U G144A	0.14
U46A A92G A94G U108C A136U	0
U46C A57G A65U U119C	0.34
U46A U91C U130C U134A	0
